No constants are given. Whether binding was seen depends on the method and setting. In cells and extracts the contact can be indirect. Some results given as binding are weak or reduced against the parent protein; the word gives no strength. Tags and fused reporters may be left off the sequences shown.

Experiment [1] deals with T1, MBP-fusion protein with the TIR domain of IL1RAPL1 (mouse) (UniProt P59823).
T1 sequence: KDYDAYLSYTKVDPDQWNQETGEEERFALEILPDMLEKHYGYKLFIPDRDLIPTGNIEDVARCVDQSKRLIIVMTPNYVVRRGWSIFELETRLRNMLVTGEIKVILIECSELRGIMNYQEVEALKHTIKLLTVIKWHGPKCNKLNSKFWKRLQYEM
Briefly: pull-down; lysates of transfected HEK 293T cells incubated with amylose resins coupled to purified MBP-fusion proteins of IL1RAPL1 domains; immunoblotting with anti-FLAG or anti-Myc antibody; only the target purified. (In general: Immunoblotting shows a protein as a band on a membrane.)

The target in the next experiment is T2, YFP-IL1RAPL1 (mouse) (UniProt P59823).
T2 sequence: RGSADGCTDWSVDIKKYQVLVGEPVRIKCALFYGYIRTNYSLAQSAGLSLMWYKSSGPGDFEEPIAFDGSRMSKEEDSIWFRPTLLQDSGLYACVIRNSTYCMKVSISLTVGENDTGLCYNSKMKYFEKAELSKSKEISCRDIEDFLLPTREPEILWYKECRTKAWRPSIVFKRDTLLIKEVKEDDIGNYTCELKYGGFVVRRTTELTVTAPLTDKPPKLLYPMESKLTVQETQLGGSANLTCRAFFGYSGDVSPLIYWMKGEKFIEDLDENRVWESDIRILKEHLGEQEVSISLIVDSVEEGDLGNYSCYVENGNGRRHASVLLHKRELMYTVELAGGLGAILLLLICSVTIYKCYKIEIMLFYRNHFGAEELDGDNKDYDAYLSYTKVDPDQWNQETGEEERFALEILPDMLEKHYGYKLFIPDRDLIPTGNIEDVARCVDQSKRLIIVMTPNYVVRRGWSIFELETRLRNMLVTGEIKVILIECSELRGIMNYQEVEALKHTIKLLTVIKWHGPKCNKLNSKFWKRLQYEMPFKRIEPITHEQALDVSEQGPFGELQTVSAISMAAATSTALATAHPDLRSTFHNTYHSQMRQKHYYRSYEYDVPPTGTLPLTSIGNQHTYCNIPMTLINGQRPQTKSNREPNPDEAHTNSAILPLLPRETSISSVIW
Briefly: co-IP; HEK 293T cells co-transfected; lysed in TNE buffer (50 mM Tris-HCl pH 7.5, 1% Nonidet P-40, 150 mM NaCl, 5 mM EDTA); immunoprecipitation with anti-GFP or anti-FLAG antibody, western blotting with anti-FLAG or anti-Myc antibody.

B1: FLAG-Mcf2l (protein, UniProt Q64096 1-1149)
chain: MSDCWCFIFCKEHVRSNPLSPQHDGASREEADHQVDVSDGIRLVPDKAEATAATASDEIMHQDIVPLCAADIQEQLKKRFAYLSGGRGQDGSPVITFPDYPAFSEIPDKEFQNVMTYLTSIPSLQDAGIGFILVIDRRQDKWTSVKASVLRIAASFPANLQLVLVLRPTGFFQRTLSDIAFKFNRDEFKMKVPVMMLSSVPELHGYIDKSQLTEDLGGTLDYCHSRWLCHRTAIESFALMVKQTAQMLQAFGTELAETELPNDVQSTSLVLSAHTEKKAKVKEDLQLALKEGNSILESLREPLAESAAHSVNQDQLDNQATVQRLLAQLNETEAAFDEFWAKHQQKLEQCLQLRHFEQGFREVKTTLDSMSQKIAAFTDVGNSLAHVQHLLKDLTAFEEKSSVAVDKARALSLEGQQLIENRHYAVDSIHPKCEELQHLCDHFASEVTRRRGLLSKSLELHSLLETSMKWSDEGIFLLASQPVDKCQSQDGAEAALQEIEKFLETGAENKIQELNEIYKEYECILNQDLLEHVQKVFQKQESTEEMFHRRQASLKKLAAKQTRPVQPVAPRPEALTKSPSPSPGSWRSSENSSSEGNALRRGPYRRAKSEMSEPRQGRTSSTGEEEESLAILRRHVMNELLDTERAYVEELLCVLEGYAAEMDNPLMAHLISTGLQNKKNILFGNMEEIYHFHNRNIPAGLESCIDCPELVGRCFLERMEEFQIYEKYCQNKPRSESLWRQCSDCPFFQECQKKLDHKLSLDSYLLKPVQRITKYQLLLKEMLKYSKHCEGAEDLQEALSSILGILKAVNDSMHLIAITGYDGNLGDLGKLLMQGSFSVWTDHKKGHTKVKELARFKPMQRHLFLHEKAVLFCKKREENGEGYEKAPSYSYKQSLNMTAVGITENVKGDTKKFEIWYNAREEVYIIQAPTPEIKAAWVNEIRKVLTSQLQACREASQHRALEQSHSLPLPTPSSTSPTKGNTRNVKKLEDRKTDPLSLEGYVSSSLPKPPEKGKGWSKTSHSLEAPEEDGGWSSAEELINSSDAEEDGGVGPKKLVPGKYTVVMDDEKGGPDTLAMRSGDMVEVVEEGAEGLWYVRDLTSSKEGWVPASSLSTLLGKSSSAQCLSSSGKIHCARQLCPEPAEILSPEPV
As to B1, the binding result (in experiment [1]; with YFP-IL1RAPL1 (mouse)) was “binds” each time.

For the origin of these results see paper PMC3681934.
